From patent publication US20020193575A1 (published 2002)

Molecular target: T1, recombinant E. coli human IL4 (non-glycosylated) (human, UniProt P05112 25-153)
T1 sequence (looked up): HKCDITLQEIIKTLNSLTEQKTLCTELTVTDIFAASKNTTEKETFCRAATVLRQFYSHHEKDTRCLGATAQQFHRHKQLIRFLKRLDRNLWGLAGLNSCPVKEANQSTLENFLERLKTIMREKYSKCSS
Test: cell-based or functional assay

B1: murine MAb 3B9 (antibody, V domains shown)
VH: QVTLKESGPGILQPSQTLSLTCSFSGFSLSTSGMGVSWIRQPSGKGLEWLAHIYWDDDKRYNPSLKSRLTISKDTSSNQVFLKITSVDTADTATYYCARRETVFYWYFDVWGAGTTVTVSS
VL: DIVLTQSPASLAVSLGQRATISCKASQSVDYDGDSYMNWYQQKPGQPPKLLIYAASNLESGIPARFSGSGSGTDFTLNIHPVEEEDAATYYCQQSNEDPPTFGGGTKLEIKR
CD23 induction on tonsil B lymphocytes, IC50: 0.136 nM
